Results reported in paper PMC8858569.
No constants are given. Whether binding was seen depends on the method and setting. For some assays here: In cells and extracts the contact can be indirect. Some results given as binding are weak or reduced against the parent protein; the word gives no strength. For some assays here: Tags and fused reporters may be left off the sequences shown.

By UniProt entry, the sequences of proteins in these tests, tags left out. Residues count along the entry.
UniProt Q99523, residues 779-831: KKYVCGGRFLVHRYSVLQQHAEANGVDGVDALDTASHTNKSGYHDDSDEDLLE
UniProt Q62083: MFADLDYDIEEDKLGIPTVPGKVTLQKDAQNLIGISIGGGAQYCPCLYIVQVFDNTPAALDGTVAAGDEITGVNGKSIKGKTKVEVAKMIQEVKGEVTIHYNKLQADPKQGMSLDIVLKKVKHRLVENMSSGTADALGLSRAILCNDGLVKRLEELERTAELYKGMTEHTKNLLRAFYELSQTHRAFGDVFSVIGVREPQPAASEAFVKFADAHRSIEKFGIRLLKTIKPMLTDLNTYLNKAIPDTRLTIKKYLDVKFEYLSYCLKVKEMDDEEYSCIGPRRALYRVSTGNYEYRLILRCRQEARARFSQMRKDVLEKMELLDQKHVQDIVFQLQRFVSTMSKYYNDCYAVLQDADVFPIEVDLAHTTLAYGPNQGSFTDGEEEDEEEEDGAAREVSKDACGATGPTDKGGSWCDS
UniProt Q9UJY4: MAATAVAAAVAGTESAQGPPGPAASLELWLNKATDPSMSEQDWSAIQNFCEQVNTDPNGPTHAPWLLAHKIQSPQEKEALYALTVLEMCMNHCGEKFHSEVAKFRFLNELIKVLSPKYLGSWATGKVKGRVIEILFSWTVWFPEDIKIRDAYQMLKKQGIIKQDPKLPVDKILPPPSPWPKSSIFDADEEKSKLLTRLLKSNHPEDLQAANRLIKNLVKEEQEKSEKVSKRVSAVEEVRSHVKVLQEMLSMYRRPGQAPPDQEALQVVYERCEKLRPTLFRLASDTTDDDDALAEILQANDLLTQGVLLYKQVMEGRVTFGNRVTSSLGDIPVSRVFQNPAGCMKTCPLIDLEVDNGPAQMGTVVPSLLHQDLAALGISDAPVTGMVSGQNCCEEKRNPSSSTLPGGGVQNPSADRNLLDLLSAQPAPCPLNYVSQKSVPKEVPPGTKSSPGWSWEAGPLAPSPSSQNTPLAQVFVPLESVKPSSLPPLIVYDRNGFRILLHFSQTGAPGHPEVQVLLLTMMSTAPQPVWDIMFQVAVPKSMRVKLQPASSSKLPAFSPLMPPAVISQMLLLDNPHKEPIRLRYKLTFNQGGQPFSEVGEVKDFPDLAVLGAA
UniProt Q9NRD5: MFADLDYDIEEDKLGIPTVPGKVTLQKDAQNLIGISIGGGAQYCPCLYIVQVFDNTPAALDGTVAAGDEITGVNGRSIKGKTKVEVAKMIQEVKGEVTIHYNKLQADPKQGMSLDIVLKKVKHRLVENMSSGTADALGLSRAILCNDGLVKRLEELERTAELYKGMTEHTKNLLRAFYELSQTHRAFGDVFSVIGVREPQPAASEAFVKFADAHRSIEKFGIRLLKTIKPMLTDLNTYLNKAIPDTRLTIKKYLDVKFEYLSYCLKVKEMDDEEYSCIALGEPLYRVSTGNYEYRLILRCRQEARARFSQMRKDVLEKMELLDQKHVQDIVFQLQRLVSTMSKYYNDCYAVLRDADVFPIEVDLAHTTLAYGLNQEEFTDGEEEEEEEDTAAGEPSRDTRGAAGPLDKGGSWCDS

How the values were obtained:
[1] = biological target: T1, GST fused to the cytoplasmic domain of SorLA (UniProt Q92673); test: pull-down; GST or GST-SorLA-cd on glutathione magnetic agarose beads, incubated overnight with solubilised mouse forebrain extract (S3; 0.1 mM EDTA, 1% Triton, pH 7.4); immunoblot with anti-PICK1; only the target purified
T1 sequence: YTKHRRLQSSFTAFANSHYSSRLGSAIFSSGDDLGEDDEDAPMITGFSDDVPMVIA

T70mV-SorLA-CD = biological target: T2, T70mV-SorLA-CD (UniProt Q92673); test: recruitment to mitochondria in cells (confocal microscopy); COS7 cells co-transfected with a cytoplasmic domain placed on mitochondria by Tom70(1-88)-mVenus and a tdTomato-tagged adaptor; recruitment of tdTomato to mitochondria read out
T2 sequence: T1 sequence

T70mV-Sortilin-CD = T70mV-Sortilin-CD (UniProt Q99523); test: as above
[2] = biological target: T1, GST fused to the cytoplasmic domain of SorLA; test: pull-down; GST or GST-SorLA-cd prebound to glutathione magnetic agarose beads, incubated 2 h at 4 °C with lysate of CHO cells stably expressing PICK1-Myc (150 mM NaCl, 1% Triton X-100, 20 mM Tris-HCl, 10 mM EDTA, pH 8.0); immunoblot with anti-PICK1; only the target purified
[3] = biological target: GAL4 DNA-binding domain fused to the wild-type cytoplasmic domain of Sortilin (UniProt Q99523); test: two-hybrid; mammalian two-hybrid (modified Checkmate system) in N2a cells; GAL4 DNA-binding domain fused to the cytoplasmic domains, VP16 activation domain fused to PICK1; firefly luciferase normalised to co-transfected eGFP
[4] = biological target: T3, GAL4 DNA-binding domain fused to the wild-type cytoplasmic domain of SorLA (UniProt Q92673); test: as above
T3 sequence: T1 sequence

Row | Substance | binding (T70mV-SorLA-CD) | binding (T70mV-Sortilin-CD) | other results
1 | PICK1 of mouse brain (from UniProt Q62083 1-416) |  |  | binding [1]: binds
2 | tdTomato-GGA2 (from UniProt Q9UJY4 1-613) | binds | binds | 
3 | Myc-tagged PICK1 (from UniProt Q9NRD5 1-415) |  |  | binding [2]: binds
4 | tdTomato-PICK1 (from UniProt Q9NRD5 1-415) | binds | no binding | 
5 | VP16 transcriptional activation domain fused to full length PICK1 (from UniProt Q9NRD5 1-415) |  |  | binding [3]: no binding; binding [4]: binds
